Experimental data taken from PubChem BioAssay AID1963576 (National Center for Advancing Translational Sciences (NCATS), 2024).
Screen size: about 46,000 compounds; about 60 (0.1%) were called active. Not shown: some 3% with an inconclusive outcome. The call rests on the fitted dose curve; in most records, active means well fitted inhibition curve with a large enough effect; inconclusive means small, poorly fitted or top-dose-only effect; inactive means no such curve, though single readings can be large or run the other way. This is one part of the list.

Test: Primary qHTS assay for Inhibitors of ovarian cancer metastasis using an organotypic tumor microenvironment (TME) model. Further: nearly all actives have a fitted effect of over 65% in size.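 On activity change, negative = inhibition: plate controls were DMSO wells for no effect and tomatine positive control wells for full effect.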
Details: SKOV3ip1-GFP adhesion/invasion on 3D omental model, fluorescence; series mostly up to 45.8 µM; activity change, negative = inhibition: at the top concentration
Procedure, shortened: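 A 3D layer of primary human omental fibroblasts, mesothelial cells, fibronectin and collagen I, grown 48 hr, received SKOV3ip1-GFP cells in serum-free medium plus compounds at 0.36-46 umol/L. After 2 hr RT and 16 hr 37 C, fixed adherent GFP cells were counted; normalized to DMSO and tomatine.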

outcome, inactive:
CC(C)c1cnc2c(c1SCC(=O)c1ccccc1)c(=O)n(C)c(=O)n2C
CC(C)(C)NC(=O)CSc1nc(-c2ccc(F)cc2)cc(C(F)(F)F)n1
O=C(c1cnc2c(c1)COc1ccccc1-2)c1ccccc1O
COc1ccc(S(=O)(=O)N2CCN(c3ccccc3)CC2)cc1-c1noc(C)n1
O=C(Cn1c(=O)c(C(F)(F)F)nc2ccccc21)Nc1ccc(Br)cc1F
CCOC(=O)Cn1c(=O)n(C2CCCCC2)c2nc(-c3ccc(OC)cc3)nc(C(N)=O)c21
Cc1ccc(CNC(=O)C(=O)NCC(c2ccco2)S(=O)(=O)c2ccc(C)cc2)cc1 (centres undefined)
Cc1ccc(Cn2c(=O)n(Cc3ccccc3)c(=O)c3c(C)c(C)sc32)cc1
Cc1cccc2c(=O)cc(CSCC(=O)Nc3ccc(Cl)cc3)[nH]c12
COc1ccc(Nc2nc(Nc3ccc(OC)cc3OC)nc(N3CCOCC3)n2)c(OC)c1
CCc1cccc(C)c1NC(=O)c1cc(S(=O)(=O)N2CCC3(CC2)OCCO3)ccc1F
CCCCNC(=O)C1CCN(c2nc3ccc(C)cc3[nH]2)CC1
COc1ccc(-c2nc(C)c(CCNS(=O)(=O)c3ccc(F)cc3)s2)cc1OC
COc1ccccc1OCC(=O)N1CCC(c2nc3ccccc3o2)CC1
COc1ccc(Nc2nnc(-c3ccc(C)c(S(=O)(=O)NCCO)c3)c3ccccc23)cc1C(N)=O
COc1ccc(-c2c(C)nn3c(C(F)(F)F)cc(-c4ccccc4)nc23)cc1OC
Cc1ccc(NC(=O)c2c(C)oc3c2C2=NCCN2C=N3)cc1F

Activity change, negative = inhibition, inactive:
COc1ccc(S(=O)(=O)NCC(c2ccco2)N2CCN(c3ccc(F)cc3)CC2)cc1 (centres undefined) -0.343%
Cn1nc(-c2ccccc2F)c2cc(C(=O)Nc3cc(F)ccc3F)sc21 14%
Cc1ccccc1Cn1cc(CCC(=O)NCc2cccc(Br)c2)c2ccccc21 -6.52%
COC(=O)c1ccc(NC(=O)N2CCN(c3nnc(C)c4c(C)n(-c5ccccc5)nc34)CC2)cc1 9.08%
Cn1c(=O)n(C)c2cc(CNCc3ccccc3)ccc21 15.5%
COc1cc(NC(=O)c2ccc(-c3ccc(Cl)cc3)o2)cc(OC)c1 -4.46%
Cc1cc(C)c(S(=O)(=O)Nc2cc(Cl)c3oc4c(c3c2)C(=O)CCC4)cc1C -11.8%
COc1ccc(Cc2nc3ccc(C(=O)NCCc4ccc(OC)c(OC)c4)cc3o2)cc1 -1.73%
Cc1cc(C)cc(NC(c2nnc(-c3cccc(F)c3)o2)c2ccc(F)cc2Cl)c1 (centres undefined) 2.85%
CCOc1ccc(C(=O)Nc2ccc(-c3nnc4n3CCCCC4)cc2)cc1OCC 7.07%
Cc1ccc(CNS(=O)(=O)c2cc(Br)cc3c2N(C(=O)C2CC2)CC3)cc1 -4.31%
Cc1ccc2oc(-c3cccc(NC(=O)c4ccc(N5CCC(C)CC5)c([N+](=O)[O-])c4)c3)nc2c1 -13.4%
CCCCNC(=O)CN1C(=O)c2c(c3ccccc3n2C)C1c1ccc(OC)cc1 (centres undefined) -8.15%
CC(C)(C)C(=O)Nc1nc2nc(-c3ccccc3)cc(=O)n2[nH]1 -13.4%
Cc1ccc(S(=O)(=O)N2CCCc3cc(NS(=O)(=O)c4ccc(C)c(C)c4)ccc32)cc1 -9.51%
C[C@]12C=CC(=O)C=C1CC[C@@H]1[C@@H]2C(=O)C[C@@]2(C)[C@H]1CC[C@]2(O)C(=O)CO -10.9% [at 23.2 µM]
CC(=O)c1ccc(NC(=O)CSc2c(C(C)C)cnc3c2c(=O)n(C)c(=O)n3C)cc1 -4.23%
COc1ccc(C2CC(=O)c3cc(-c4nc(-c5cccc([N+](=O)[O-])c5)cs4)c(=O)n(-c4ccc(F)cc4)c3C2)cc1 (centres undefined) 7.76%
Cc1oc(-c2ccc(Cl)cc2)nc1CN1CCCC(C(=O)NCCc2ccccc2)C1 (centres undefined) 2.19%
CCOc1ccc(CNCCSc2nnnn2C)cc1OC -26.1%
O=C(CS(=O)(=O)c1cccc2nsnc12)N1CCN(c2ccccc2)CC1 -3.11%
COC(=O)c1ccn(-c2nc(-c3ccc(Cl)cc3)cc(C(F)(F)F)n2)n1 9.46%
c1ccc2c(Oc3nc(Nc4ccc(N5CCOCC5)cc4)c4ncn(C5CCCCC5)c4n3)cccc2c1 -11.3%
COc1ccc(C2(N3CCN(c4cccc(C)c4C)CC3)C(=O)c3ccccc3C2=O)cc1 -4.69%
Cc1c(-c2nnc(SCC(=O)Nc3ccc(Br)cc3)o2)nnn1-c1ccc(F)cc1 7.04%
O=C(Cn1c(=O)n(Cc2ccc(C(=O)NCc3ccc4c(c3)OCO4)cc2)c(=O)c2ccccc21)Nc1ccc(F)cc1F -15.5%
CC(C)c1ccc(CN(Cc2ccco2)c2cnc(S(C)(=O)=O)nc2C(=O)Nc2ccccc2)cc1 6.61%
COC(=O)c1ccccc1NC(=O)c1cn2c3c(ccc(Cl)c3c1=O)OC(C)C2 (centres undefined) -10.7%
Nc1ncnc2nc(-c3ccc(N4CCOCC4)nc3)cc(-c3cccc(Br)c3)c12 -0.797%
Cc1ccc(NC(=O)Nc2cn(CC(C)C)c(=O)c3ccccc23)cc1N(C)C -6.21%
COc1cccc(CNC(=O)C2CCN(C(=O)c3cnn(-c4ccccc4)c3-n3cccc3)CC2)c1 -2.46%
COc1ccc(-c2cc(C(C)=O)c(C)n2CCC(=O)NCc2ccc(C)cc2)cc1 1.74%
CNC(=O)c1c(NC(=O)c2nc(SCc3ccc(C)cc3)ncc2Cl)sc2c1CCCC2 -2.82%
CCOC(=O)c1cc(S(=O)(=O)N2CCN(c3cccc(C)c3C)CC2)[nH]n1 15.3%
CCCS(=O)(=O)c1ncc(Cl)c(C(=O)Nc2c(C(=O)Nc3ccccc3)oc3ccccc23)n1 -12.2%
Cc1ccc(-n2ncc(C(=O)NC3CCCCC3)c2C2CCN(C(=O)OC(C)(C)C)CC2)cc1 -3.81%
CCN(c1ccccc1C)S(=O)(=O)c1nnc(NC(=O)c2ccco2)s1 7.54%
COc1ccc(N(C)C(=O)c2cc3c(s2)-c2c(C)cccc2OC3)c(OC)c1 11.5%
COc1ccc(CNc2nc3c(-c4cccc(F)c4)nnn3c3ccccc23)cc1 22%
O=C(Nc1cccnc1)c1cc(-c2ccc(Cl)cc2)on1 -12.3%
O=C(Cn1cccc1C(=O)c1ccccc1)NCc1ccccc1Cl 5.22%
O=C(c1ccc2c(c1)N(Cc1cccc(F)c1)C(=O)c1ccccc1S2)N1CCC2(CC1)OCCO2 5.49%
